Over roughly 33,000 sequences, “E-score (-0.5 to 0.5)” has its median near -0.021; the highest 2% begin near 0.32. The list shows a part of the results.
What follows are sequences tested against T1, Zap1 (UniProt P47043) (assay: PBM E-score (8-mer binding enrichment) (E-score (-0.5 to 0.5)); higher = stronger / more preferred TF binding; most listed sequences are background and not binding sites). Conditions: protein concentration: 200 nM; construct: GST-full length.
T1 sequence: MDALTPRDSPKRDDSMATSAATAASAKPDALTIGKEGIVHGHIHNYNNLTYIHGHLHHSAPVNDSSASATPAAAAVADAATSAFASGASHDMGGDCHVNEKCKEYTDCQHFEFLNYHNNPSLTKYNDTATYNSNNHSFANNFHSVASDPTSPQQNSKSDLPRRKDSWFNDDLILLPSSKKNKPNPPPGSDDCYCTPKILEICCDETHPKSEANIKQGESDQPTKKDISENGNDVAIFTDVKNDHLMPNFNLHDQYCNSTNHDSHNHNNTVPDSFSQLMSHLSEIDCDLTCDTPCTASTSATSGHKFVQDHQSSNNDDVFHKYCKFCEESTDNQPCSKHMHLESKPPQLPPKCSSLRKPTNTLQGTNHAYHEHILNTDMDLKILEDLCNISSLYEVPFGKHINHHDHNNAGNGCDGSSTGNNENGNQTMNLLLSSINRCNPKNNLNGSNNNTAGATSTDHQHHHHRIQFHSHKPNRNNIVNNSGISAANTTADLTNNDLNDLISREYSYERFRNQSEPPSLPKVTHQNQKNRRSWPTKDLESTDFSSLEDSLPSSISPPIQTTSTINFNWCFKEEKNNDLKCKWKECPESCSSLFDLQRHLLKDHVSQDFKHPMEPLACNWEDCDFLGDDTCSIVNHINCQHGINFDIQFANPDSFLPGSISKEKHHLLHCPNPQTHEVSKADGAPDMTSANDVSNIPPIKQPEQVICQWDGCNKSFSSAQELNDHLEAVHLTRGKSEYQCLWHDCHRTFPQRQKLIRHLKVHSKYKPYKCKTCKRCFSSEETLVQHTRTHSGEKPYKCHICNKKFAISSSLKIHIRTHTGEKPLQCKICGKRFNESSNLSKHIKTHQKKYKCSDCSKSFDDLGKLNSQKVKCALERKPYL
How it was run: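 Universal all-10-mer Agilent arrays, double-stranded by primer extension on fresh or once-stripped slides, were probed with about 100-200 nM GST-tagged yeast transcription factors made by PURExpress. Fluorescent anti-GST detected bound protein, and masliner normalised the scans. E-scores from the Universal PBM Analysis Suite were given to each ungapped eight-base word pooled with its reverse complement.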

Row | Sequence | PBM E-score
1 | AATAAAGC | -0.0617
2 | CATATTGG | 0.0442
3 | CTTGGCGC | 0.0977
4 | CGATAGAA | 0.0889
5 | GTAGGAAA | 0.0104
6 | GCTCCGTA | -0.204
7 | CATTCAAA | 0.0938
8 | AGCTCCCG | -0.274
9 | ATATATAC | 0.199
10 | CACAGTCG | -0.0562
11 | ATGCAACA | 0.0505
12 | AACCAGGG | 0.215
13 | TATATCCA | 0.0483
14 | AAAGCTGG | -0.144
15 | GTGTCAAC | -0.121
16 | AGAATTTG | 0.142
17 | GCCTATAA | 0.0396
18 | GCGGACAC | 0.0715
19 | AACCCAGC | 0.147
20 | GCCTCAGA | -0.0467
21 | CAACCCCG | 0.211
22 | CGAACTCC | -0.121

Row | Sequence | PBM E-score
23 | AATTGTCT | 0.0635
24 | TACCGATA | 0.102
25 | CAATTTTA | 0.114
26 | AGGGTTGG | 0.333
27 | CGGCCCAG | -0.14
28 | CCTCGACG | -0.117
29 | ACCACTAG | 0.218
30 | ACCGTCAT | -0.0375
31 | CGCTAGCG | -0.117
32 | CAGGGGTA | 0.286
33 | AACCTTGT | 0.229
34 | TCTTCCCA | -0.0261
35 | AAGAATGA | -0.0399
36 | AAGATGCT | -0.274
37 | GCGACAGC | -0.115
38 | CCAATCCA | -0.0777
39 | ACTCCAGC | -0.288
40 | CCCGTCCG | -0.284
41 | GACTCCCC | -0.236
42 | AACCCCAC | 0.344
43 | GCGGCGTA | -0.174
44 | CAAGCACG | -0.199

Row | Sequence | PBM E-score
45 | AACCCCAT | 0.359
46 | ACATGGCA | -0.201
47 | ACATTGTG | -0.0522
48 | ACGCGAAG | 0.0536
49 | AAACACGG | 0.00614
50 | AGAGGGGG | -0.319
51 | AAACTACC | 0.294
52 | AGGAGTGA | -0.207
53 | ATTAATTA | 0.19
54 | ACGTGGCC | -0.0219
55 | CGTTTCGA | -0.097
56 | CAACCCGA | 0.355
57 | CAGCCGGA | -0.0143
58 | AATACTGC | -0.0187
59 | TCGAATCA | -0.086
60 | ACTCCTTA | 0.0191
61 | CATTCCTA | -0.0344
62 | ACGGCACC | -0.164
63 | GCCCACAA | 0.147
64 | AAGTATAA | 0.134
65 | AGCTCGAA | 0.0884
66 | TCGAGGCA | -0.121

Row | Sequence | PBM E-score
67 | CAATGGCG | -0.244
68 | GTGCCGCA | -0.0717
69 | TCATTCCA | -0.0602
70 | GAAATGGC | -0.091
71 | AAAAGCGC | -0.135
72 | GATAAATC | -0.0377
73 | ACGGGACT | -0.325
74 | CAGTTACC | 0.208
75 | CGAGAGCC | -0.188
76 | AACTAACC | 0.333
77 | ATTGTCAA | 0.157
78 | ACCTAAGT | 0.185
79 | CATAGAAG | -0.0579
80 | CAGCGGTA | 0.0887
81 | TCCCTCCA | -0.134
82 | ACGCCGCA | -0.214
83 | AGCCTAGA | -0.126
84 | AATTGACA | -0.0166
85 | CGTAGGGC | -0.168
86 | AGTTACGG | 0.0975

— the supplement of paper PMC3334620
